Experimental data taken from article PMC4336329 (PLoS ONE, 2015).
Out of some 310,000 compounds screened, about 2,200 (0.71%) showed an effect of 50% or more. The effect is printed as a negative number. The list shows a part of the results.

biological target: human ether-à-go-go-related gene (hERG) potassium channel (human, UniProt Q12809); test: primary screen, population patch clamp on CHO cells stably expressing hERG
Sequence (Q12809 whole entry, looked up): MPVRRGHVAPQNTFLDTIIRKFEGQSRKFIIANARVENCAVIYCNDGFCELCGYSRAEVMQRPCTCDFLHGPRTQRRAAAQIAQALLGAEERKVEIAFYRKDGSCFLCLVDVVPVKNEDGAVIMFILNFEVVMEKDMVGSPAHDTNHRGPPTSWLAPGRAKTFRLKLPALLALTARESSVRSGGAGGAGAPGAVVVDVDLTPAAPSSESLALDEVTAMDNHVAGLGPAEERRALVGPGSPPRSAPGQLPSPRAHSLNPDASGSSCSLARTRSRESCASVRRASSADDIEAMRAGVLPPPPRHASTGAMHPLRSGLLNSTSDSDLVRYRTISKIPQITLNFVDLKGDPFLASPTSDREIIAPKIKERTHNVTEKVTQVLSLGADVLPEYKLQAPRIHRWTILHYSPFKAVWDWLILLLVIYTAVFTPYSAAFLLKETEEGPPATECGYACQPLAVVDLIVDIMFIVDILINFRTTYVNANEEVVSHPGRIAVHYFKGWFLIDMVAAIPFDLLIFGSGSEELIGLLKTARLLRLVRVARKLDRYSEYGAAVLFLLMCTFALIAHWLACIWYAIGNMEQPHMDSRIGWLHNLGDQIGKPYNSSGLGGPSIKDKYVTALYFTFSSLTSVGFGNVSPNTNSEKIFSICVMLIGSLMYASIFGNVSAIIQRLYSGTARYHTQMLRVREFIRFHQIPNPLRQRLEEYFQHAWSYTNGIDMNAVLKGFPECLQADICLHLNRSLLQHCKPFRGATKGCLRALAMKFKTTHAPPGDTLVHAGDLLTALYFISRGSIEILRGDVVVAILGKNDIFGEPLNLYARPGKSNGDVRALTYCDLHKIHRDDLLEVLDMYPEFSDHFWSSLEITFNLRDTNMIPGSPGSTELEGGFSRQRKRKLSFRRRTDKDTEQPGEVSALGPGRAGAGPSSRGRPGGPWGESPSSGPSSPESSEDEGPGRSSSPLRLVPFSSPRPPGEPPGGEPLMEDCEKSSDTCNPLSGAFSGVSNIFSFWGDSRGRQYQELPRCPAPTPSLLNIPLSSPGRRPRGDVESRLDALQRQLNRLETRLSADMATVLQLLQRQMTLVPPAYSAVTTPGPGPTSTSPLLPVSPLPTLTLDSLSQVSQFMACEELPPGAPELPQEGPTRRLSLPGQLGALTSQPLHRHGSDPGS

| SMILES | hERG current change (%, negative = inhibition) at 1uM |
| --- | --- |
| CC(=O)N1CCCc2cc(S(=O)(=O)NCc3ccc(C)cc3)ccc21 | 4.86% |
| Cc1nn(-c2ccccc2)c(C)c1C(=O)OCC(=O)N1CCN(S(=O)(=O)c2ccccc2)CC1 | -6.28% |
| O=C1CC(C(=O)Nc2ccc(Cl)cc2[N+](=O)[O-])C2(CCCCC2)O1 (stereo not drawn) | 8.1% |
| C=CCN(C(=O)c1ccc2snnc2c1)c1ccccc1 | 8.2% |
| O=C(c1cc(-c2ccccc2)on1)N1CCCC1 | 17% |
| CC(C)Oc1ccc(S(=O)(=O)N2CCCCC2)cc1NC(=O)CC1OC(=O)c2ccccc21 (stereo not drawn) | 6.12% |
| O=C(NCCN1CCOCC1)c1cccc(S(=O)(=O)N2CCCCC2)c1 | 16.1% |
| CCOc1ccc(OCC(O)CNC2CCN(Cc3ccccc3)CC2)cc1.O=C(O)C(=O)O (stereo not drawn) | -1.45% |
| CCC(C)NC(=O)c1ccccc1NC(=O)CN(c1ccc(OC)cc1)S(C)(=O)=O (stereo not drawn) | 3.21% |
| CC(=O)Nc1ccc(/C=N/NC(=O)c2cccc(S(=O)(=O)N3CCOCC3)c2)cc1 | 14.1% |
| CC(C)C(c1nnnn1Cc1ccccc1)N(Cc1ccco1)Cc1cccs1 (stereo not drawn) | 12.8% |
| Cc1ccccc1-n1ncc2c1CC(C)(C)CC2NC(=O)CCN1Cc2ccccc2C1=O (stereo not drawn) | 13.6% |
| Cc1ccc(Cl)c2sc(N3CCN(C(=O)c4ccco4)CC3)nc12 | -0.903% |
| CCOC(=O)c1cc(C(C)(C)C)nc(SC)c1C#N | 12.9% |
| O=C(NCc1ccco1)c1ccc(COc2cccc3ccccc23)cc1 | 4.4% |
| C=CCNC(=O)c1c(C(F)(F)F)nn(C)c1Cl | 3.1% |
| O=C(O)c1ccccc1C(=O)c1cccs1 | 12.2% |
| O=C(C1CCC1)N1CCc2cc(S(=O)(=O)NC3CCCc4ccccc43)ccc21 (stereo not drawn) | 6.8% |
| Cc1ccc2cccc(S(=O)(=O)Nc3ccc4c(c3)OCO4)c2n1 | -3.55% |

| SMILES | hERG current change (%, negative = inhibition) at 1uM |
| --- | --- |
| CCOc1ccccc1NC(=O)CCNS(=O)(=O)c1ccccc1 | 14.4% |
| Cc1ccc(NC(=O)c2csc3c2CCCC3)cc1 | 10.9% |
| CCCCNC(=O)[C@H](CSCc1ccccc1)N1Cc2ccccc2C1=O | -28.1% |
| O=C(CCC1CCN(C(=O)c2ccccc2Cl)CC1)NCc1ccc(F)cc1 | 4.08% |
| CCOC(=O)C1=C(C)NC(SC)=NC1c1ccccc1.I (stereo not drawn) | 5.88% |
| CNC(=O)CO/N=C/c1ccc(N(C)C)cc1 | 10.7% |
| c1cc(-n2nnc3cnccc32)ccn1 | 14.5% |
| Cc1cccc(-c2nc3ccccc3c(=O)n2NC(=O)Cc2ccc(Cl)cc2)c1 | 3.63% |
| CCOC(=O)C1CC(C)=C(C)CC1C(=O)O (stereo not drawn) | 12% |
| COC(=O)c1ccc(-n2nnnc2SCC(=O)N2CCCCC2)cc1 | 10.4% |
| CCS(=O)(=O)N1CCN(S(=O)(=O)c2ccc3c(c2)OCCO3)CC1 | 13% |
| C[n+]1c(/C=C/c2ccc(O)cc2)ccc2ccccc21.[I-] | -15.9% |
| COc1cc(C2OCC3C(c4ccc(OC5OC(CO)C(O)C(O)C5O)c(OC)c4)OCC23)ccc1O (stereo not drawn) | -7.37% |
| CCC(C)NC(=O)CSc1nnc(-c2cc(-c3cccs3)nc3ccccc23)o1 (stereo not drawn) | 2.87% |
| Cc1ccc(-c2nc(CN3CCCCC3CCN3CCCC3=O)c(C)o2)o1 (stereo not drawn) | -4.78% |
| CCCNC(=O)c1ccc(-c2nn(C)c(=O)c3ccccc23)cc1 | 14.3% |
| CC1CCC2C(=O)N(c3ccccc3OC(=O)c3ccccc3)C(=O)C2C1 (stereo not drawn) | 16.9% |
| COc1ccc(C(=O)c2cn(-c3cccc(Br)c3)nc2C(C)=O)cc1 | 11.9% |
| Cc1ccc(C(=O)CC(=O)c2cc(Cl)ccc2O)cc1 | 3.8% |

| SMILES | hERG current change (%, negative = inhibition) at 1uM |
| --- | --- |
| CN(C)CCNC(=O)c1nn(C)c2c1CCc1ccccc1-2 | 5.36% |
| O=C(O)c1cccnc1SCC(=O)N1CCCCCC1 | -0.241% |
| CC1CN(CC(=O)Nc2ccc([N+](=O)[O-])cc2Br)CC(C)O1 (stereo not drawn) | 4.18% |
| O=C(c1ccc(Br)cc1)N1CCN(c2ncccn2)CC1 | 11.7% |
| CC1CC(C)CN(S(=O)(=O)c2cccc(C(=O)N3CCN(c4ccc(F)cc4)CC3)c2)C1 (stereo not drawn) | -4.07% |
| CC1CCC(NC(=O)C2CC(=O)N(c3ccc(Cl)cc3)C2)CC1 (stereo not drawn) | 13.7% |
| Cc1cc(C(=O)CNCc2ccco2)c(C)n1-c1ccc(F)cc1 | 10.6% |
| Cc1ccc(C(=O)N(CCc2ccccc2)Cc2ccccc2)cc1S(=O)(=O)N1CCCCC1 | 1.1% |
| O=C(NCc1ccc2c(c1)OCO2)c1ccc(N2CCCC2=O)cc1 | 14.7% |
| CN(C)/C=C/c1c(C#N)c(=O)ncn1Cc1ccccc1 | 19.5% |
| COc1cc(OC)c(NC(=O)c2ccoc2C)cc1Cl | 14.3% |
| CC(C)c1ccc(S(=O)(=O)c2cn(Cc3ccc(F)cc3)c3cc4c(cc3c2=O)OCO4)cc1 | 3.38% |
| Cc1cc(NC(=O)CN2C(=O)c3ccccc3C2=O)no1 | 13.8% |
| CCCCC(=O)OCc1cn(-c2ccc(Cl)cc2)nn1 | 6.2% |
| CCn1nc(C)c(/C=N/NC(=O)Cn2nccc2C)c1C | 4.92% |
| CCn1c(SCC(=O)Nc2cc(C)on2)nnc1-c1ccc(S(=O)(=O)N2CCN(C)CC2)cc1 | 4.42% |
| O=C(Nc1ccccc1)c1cc2c(=O)c3ccccc3oc2nc1C(F)(F)F | 7.43% |
| CC(=O)Nc1ccc(S(=O)(=O)NCC2CCC(C(=O)NCCCN(C)Cc3ccccc3)CC2)cc1 (stereo not drawn) | 13.9% |
| O=C(NC1CC(=O)N(c2ccc(F)cc2)C1)N1CCN(C(=O)c2ccco2)CC1 (stereo not drawn) | -15.1% |
